Measurements reported in PubChem BioAssay AID686971 (National Center for Advancing Translational Sciences (NCATS), 2013).
Where “and” joins values, the source holds several entries; their conditions need not be identical. Identical values can stand only once. Out of some 360,000 compounds screened, about 7,500 (2.1%) were called active. Inconclusive results, whose numbers are uncertain, are shown with a selection of clear calls. The call rests on the fitted dose curve; in most records, active means well fitted cell-killing curve with a large enough effect; inconclusive means small, poorly fitted or top-dose-only effect, or effect the other way, or another doubt; inactive means no such curve, though single readings can be large or run the other way. Where the call is inconclusive, the potency comes from a doubtful curve fit.

Assay: qHTS for induction of synthetic lethality in tumor cells producing 2HG: qHTS for the HT-1080-IDH1KD cell line
Conditions: HT-1080 IDH1 knockdown viability, ATP luminescence, 48 h; series mostly up to 46.1 µM
Outline: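 HT-1080-IDH1KD cells (IDH1 knocked down), 750/well in RPMI with 5% FBS, treated with compound 48 h at 37 degrees C. Viability by CellTiter-Glo luminescence, normalised to DMSO and no-cell wells; concentration-response curves classed.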
Potency means the concentration at half of the fitted maximal effect; tags describe the fitted curve by direction and shape.

| SMILES | Potency |
| --- | --- |
| Oc1ccc(-c2csc(Nc3ccccn3)n2)cc1 | inconclusive: 16.4 µM [cytotoxic, partial curve] |
| CSc1nc(C2CC2)cc(-c2cccs2)c1C#N | inconclusive: 12.6 µM [cytotoxic, single point] |
| COc1ccc(C(=O)N2CCN(c3ccc(N4CCOCC4)nn3)CC2)cc1OC | inactive |
| COc1cc2nc(N3CCN(C(=O)OCc4ccccc4)[C@H](C(=O)NC(C)(C)C)C3)nc(N)c2cc1OC | inconclusive: 23.1 µM [cytotoxic, single point] |
| O=C(CN1c2ccccc2Sc2ccccc21)NNC(=S)Nc1ccc(Cl)cc1 | inconclusive: 16.4 µM [cytotoxic, partial curve] |
| Cn1c(O)c(C2=c3ccccc3=NC2=O)[nH]c1=S | inactive |
| O=C(c1ccc2c3c(cccc13)CC2)C1CCCN(Cc2ccccn2)C1 (stereo not drawn) | inconclusive: 20.6 µM [cytotoxic, single point] |
| COc1ccc([C@H]2CC(=O)C=C(c3cc(C=O)ccc3OC)C2)cc1 | active: 14.6 µM |
| Fc1ccc(COc2ccc(Br)cc2CNCC2CCCO2)cc1 (stereo not drawn) | inconclusive: 25.9 µM [cytotoxic, single point] |
| COc1cc(Cl)c(NC2=CC(=O)C(=O)c3ccccc32)c(OC)c1 | active: 8.2 µM |
| CC1(C)CC(=O)C2=C(C1)NC1=C(C(=O)c3ccccc31)C2c1ccc(O)cc1 (stereo not drawn) | inactive |
| N#Cc1c(NC(=O)C2CCCO2)sc2c1CCCCC2 (stereo not drawn) | inactive |
| COc1ccccc1N1C(=O)CC(Sc2n[nH]c(-c3cccc(C)c3)n2)C1=O (stereo not drawn) | inactive |
| NC(=O)c1ccccc1NC(=O)/C=C/c1ccccc1 | inactive |
| O=c1oc(-c2cccs2)nc2sc3c(c12)CCCCC3 | inconclusive: 31.6 µM [rising, single point] |
| Cc1ccc(N(CC(=O)Nc2cc(C)cc(C)c2)S(=O)(=O)c2c(C)noc2C)cc1 | inconclusive: 25.9 µM [cytotoxic, single point] |
| CCC(c1nnnn1-c1ccc2c(c1)OCCO2)N1CCN(c2cccc(C)c2C)CC1 (stereo not drawn) | inconclusive: 29.1 µM [cytotoxic, single point] |
| Cc1nc2c(OCCOc3ccc(F)cc3)cccn2c1N(C)C(=O)CCC1CCCC1 | inconclusive: 29.1 µM [cytotoxic, single point] |
| Cc1ccc(Nc2nc3ccccc3[nH]2)nc1 | inactive |
| CC(C)C1OC(CCc2ccccc2)Cc2[nH][nH]c(=O)c21 (stereo not drawn) | inconclusive: 25.9 µM [cytotoxic, single point] |
| C(=C\c1nc(N2CCCC2)c2ccccc2n1)/c1ccccc1 | inconclusive: 29.1 µM [cytotoxic, single point] |
| Cc1c(NC(=O)c2cc3c(s2)-c2ccccc2OC3)cccc1[N+](=O)[O-] | inconclusive: 14.6 µM [cytotoxic, single point] |
| OC[C@@H]1CN(Cc2ccc(Cl)cc2)C[C@H](n2cnc3c(N4CCN(c5ccccc5)CC4)ncnc32)O1 | active: 16.4 µM |
| O=S(=O)(NC1=NCCC1)c1cccc(NS(=O)(=O)c2ccc(OC(F)(F)F)cc2)c1 | inactive |
| CCOC(=O)c1nnn(-c2nc(OC)nc(N3CCCC3)n2)c1-c1ccccc1 | inconclusive: 29.1 µM [rising, single point] |

| SMILES | Potency |
| --- | --- |
| Cc1ccc(C2CC(C(F)(F)F)n3nc(C(=O)NCc4c(C)nn(C)c4C)c(Cl)c3N2)cc1 (stereo not drawn) | inconclusive: 20 µM [cytotoxic, partial curve, poor fit] |
| Nc1c(C(=O)Nc2ccc3c(c2)OCCO3)nnn1Cc1ccc(Br)cc1 | inactive |
| S=C(NCCCN1CCOCC1)N1CCN(c2cccc(Cl)c2)CC1 | inconclusive: 14.6 µM [cytotoxic, partial curve, poor fit] |
| C=C1CCN([C@@H](CC(C)C)C(=O)NCc2ccc(OC)cc2)S(=O)(=O)c2ccccc21 | inactive |
| CC1(C(=O)NCc2cccnc2)Cc2c(-c3cccc(C(F)(F)F)c3)ccnc2O1 (stereo not drawn) | inconclusive: 14.6 µM [cytotoxic, single point] |
| O=C(NN=C1C2CC3CC(C2)CC1C3)c1ccccc1O | inactive |
| Cc1cccc(C)c1NC(=O)CSCc1cccc(CSCC(=O)Nc2c(C)cccc2C)n1 | inconclusive: 23.1 µM [cytotoxic, single point] |
| COc1ccc(C2CC(=O)Oc3cc(C)c(Cl)c(C)c32)cc1 (stereo not drawn) | inconclusive: 29.1 µM [cytotoxic, single point] |
| Cc1ccc(S(=O)(=O)/N=C2\C=C(NS(=O)(=O)c3ccc(C)cc3)C(=O)c3ccccc32)cc1 | inactive |
| Cn1c(=O)c2ccccc2n2c(CCl)nnc12 | inconclusive: 25.9 µM [cytotoxic, single point] |
| CC1=CC(C)(C)N(S(=O)(=O)c2ccc(C)cc2)c2ccccc21 | inconclusive: 2.82 µM [cytotoxic, full curve] |
| CCC(=O)Nc1ccc(C(=O)NNC(=O)C(c2ccccc2)c2ccccc2)cc1 | inconclusive: 29.1 µM [cytotoxic, single point] |
| O=C(/C=C/[C@H]1O[C@@H](n2ccc(=O)[nH]c2=O)[C@H](O)[C@@H]1O)NC(c1ccccc1)c1ccccc1 | inactive |
| CN(C)CCNC(=O)c1cccc2c(-c3ccc(F)c(F)c3)coc12 | inconclusive: 25.9 µM [cytotoxic, partial curve] |
| O=c1cc(-c2ccccc2)[nH]n1-c1ccc([N+](=O)[O-])cc1 | active: 12.6 µM |
| O=C(O)CCNC(=O)/C(=C\c1ccco1)NC(=O)c1ccco1 | inactive |
| O=C(CN1C(=O)NC2(CCCCCCC2)C1=O)Nc1ccc(Cl)cc1 | inconclusive: 18.4 µM [cytotoxic, single point] |
| Cc1ccc(S(=O)(=O)c2nnn3c2nc(N2CCC(C(N)=O)CC2)c2ccccc23)cc1 | inconclusive: 29.1 µM [cytotoxic, single point] |
| COc1ccc(C2c3c4c(n(C)c3CCN2C)CCN(C)C4c2ccc(OC)cc2)cc1 (stereo not drawn) | inconclusive: 17.8 µM [cytotoxic, single point] |
| CCc1nc2ccc(C(=O)NCCOc3ccc(OC)cc3)cn2c1N(CCC(C)C)CCN(C)C | active: 20.6 µM |
| Cc1cn(C2OC(COC(=O)c3ccccc3)C(OC(=O)c3ccccc3)C2OC(=O)c2ccccc2)c(=O)[nH]c1=O (stereo not drawn) | inconclusive: 15.8 µM [cytotoxic, single point] |
| CCc1cccc(NS(=O)(=O)c2ccc3c(c2)N(C)CCO3)c1 | inconclusive: 23.1 µM [cytotoxic, single point] |
| Cc1ccc(N2CC(=O)N(NC(=O)c3sc4nc(C)cc(C)c4c3N)CC2=O)cc1 | inactive |
| O=C(NCc1ccc(F)cc1F)[C@@H]1CCCN1C(=O)[C@@H]1CCCN1C(=O)c1cccc(Cl)c1 | inactive |
| Cc1c(O)ccc(/C=N/Nc2nc(-c3cccnc3)nc3ccccc23)c1O | inconclusive: 20 µM [cytotoxic, single point] and inconclusive: 13 µM [cytotoxic, partial curve] |

| SMILES | Potency |
| --- | --- |
| Cc1ccccc1-c1n[nH]c(=S)n1/N=C/c1ccc(-c2ccccc2Br)o1 | inconclusive: 8.2 µM [cytotoxic, partial curve] |
| C=CC[C@H]1CC(C)=C[C@H](CC=C)N1 | inactive |
| O=C(Nc1ccccc1)Nc1nnc(CSCc2ccccc2Cl)s1 | inconclusive: 16.4 µM [cytotoxic, single point] |
| CCOc1ccc(C2=Nn3c(nnc3-c3cccnc3)SC2)cc1 | inactive |
| CC(C)Cc1nnc(NC(=O)Cc2ccccc2[N+](=O)[O-])s1 | inactive |
| COc1ccc2c(c1)-c1nc(NC(=O)c3cccs3)sc1CC2 | inconclusive: 29.1 µM [cytotoxic, single point] |
| C/C(=N\NC(=O)C1CC1c1ccccc1)c1cccc([N+](=O)[O-])c1 (stereo not drawn) | inactive |
| CC1=C(C(=O)Nc2cc(C(=O)NCc3ccccc3)ccc2C)SCCO1 | inconclusive: 10.3 µM [cytotoxic, partial curve] |
| C=CCNc1nc(Cl)nc(Nc2cc(Cl)ccc2OC)n1 | inactive |
| CCCn1c(C(C)Nc2nc(-c3ccc(C)cc3)cs2)nc2ccccc21 (stereo not drawn) | inconclusive: 20.6 µM [cytotoxic, single point] |
| O=C(N/N=C/C=C\c1ccco1)c1ccccn1 | inactive |
| COc1ccc(NC(=O)CCN2C(=O)c3ccncc3C2=O)cc1OC | inactive |
| O=C(NNC1=Nc2ccccc2SC1)c1cccc([N+](=O)[O-])c1 | inconclusive: 8.2 µM [cytotoxic, partial curve] |
| Cc1ccc(C)c(NC(=O)C2C3CCCC2C3c2ccccc2)c1 (stereo not drawn) | inactive |
| Cn1nc(-c2ccc(Cl)cc2)c2cc(C(=O)N3CCN(c4ccccn4)CC3)sc21 | inactive |
| O=C(Nc1cccc(Cl)c1)Nc1nnc(CSCCOc2ccc(Cl)cc2)s1 | active: 18.4 µM |
| Cc1ccc2nc(N(CCN(C)C)C(=O)/C=C/c3cccs3)sc2c1 | inconclusive: 29.1 µM [cytotoxic, single point] |
| COc1ccc(NS(=O)(=O)c2ccc3c(c2)N(C(C)=O)CCS3)cc1 | inactive |
| O=C(c1cccc(F)c1)N1CCCN(C(=O)c2cccc(F)c2)CC1 | inactive |
| Oc1ccc2ccccc2c1C=Nc1ccccc1 | inconclusive: 23.1 µM [cytotoxic, partial curve] |
| CCOc1ccc(-c2noc(CCC(=O)NCCc3ccccc3)n2)cc1OC | inconclusive: 18.4 µM [cytotoxic, partial curve] |
| COc1ccc2c(CN(C)Cc3ccccc3)cc(=O)oc2c1 | inactive |
| CCCOc1ccccc1C1CC(=O)NC2=C1C(=O)CCC2 (stereo not drawn) | active: 8.2 µM |
